Measured values reported in PubChem BioAssay AID1814 (Broad Institute, 2009).
About 22,000 (7.3%) of roughly 300,000 compounds were called active. Inconclusive results, whose numbers are uncertain, are shown with a selection of clear calls. Rule as the data show it: active = activity score below about -60%; inconclusive = mostly about -28% to -61%; inactive = positive scores.

test: Activators via SNCA 5'UTR binding, MLPCN (AID 1814); conditions: alpha-synuclein 5'UTR reporter, activators screen; active compounds read low; tested at 7.5 µM

Row | SMILES | activity score
1 | Cc1nn(-c2ccc(N3CCCCC3)nn2)c(C)c1CCC(=O)Nc1cccc(F)c1 | active: -120%
2 | N#Cc1cc2ccccc2nc1SCC(=O)NC1CC1 | inconclusive: -58.5%
3 | O=C(OCc1nc2ccccc2s1)c1ccccc1O | active: -137%
4 | CCOC(=O)C1(Cc2ccc(OC)cc2)CCN(C(=O)c2ccc3[nH]ccc3c2)CC1 | active: -127%
5 | CCOC(=O)c1c(C)[nH]c(C(=O)OCC(=O)NC(C)C)c1C | inconclusive: -44.1%
6 | CN(CCc1ccccn1)C(=O)Nc1ccc(Cl)cc1 | inconclusive: -61%
7 | O=C(NC(=S)Nc1ccc(N2CCOCC2)cc1)c1ccccc1 | active: -148%
8 | COc1cccc(/C=N/NC(=O)c2[nH]nc3c2CCc2ccccc2-3)c1O | inactive: 76.4%
9 | CCOc1ccc2c(c1)OC(c1ccc(C)cc1)(C(F)(F)F)NC2=O (stereo not given) | inactive: 95.8%
10 | O=C(NC(=O)c1ccccc1)Nc1ccccn1 | inactive: 64.3%
11 | Cc1sc2ncnc(N3CCC(C(=O)Nc4nc5ccc(Cl)cc5s4)CC3)c2c1C | active: -183%
12 | COc1ccc(OC)c(S(=O)(=O)Nc2ccccc2C(=O)O)c1 | inconclusive: -37.4%
13 | CCCN1CCN(CCCNC(=O)c2ccc3c(Cl)c4c(nc3c2)CCCC4)CC1 | inconclusive: -56.1%
14 | Cc1ccc(C(=O)/C=C/Nc2ccc([N+](=O)[O-])cc2Br)cc1 | active: -124%
15 | COc1ccc(C(=O)CSc2nnc(-c3ccco3)c(-c3ccco3)n2)cc1 | inconclusive: -35.8%
16 | CCC(=O)Nc1cccc(NC(=S)NC(=O)c2ccc(C)cc2)c1 | active: -156%
17 | Cn1c(CC2C(=O)Nc3ccc(Br)cc32)nc2ccccc2c1=O (stereo not given) | inconclusive: -59%
18 | COc1ccc2[nH]c(S(=O)Cc3ncc(C)c(OC)c3C)nc2c1 (stereo not given) | inconclusive: -46.3%
19 | CC1(C)CCc2cc(-c3ccnc(=S)[nH]3)ccc2O1 | inconclusive: -56.1%
20 | CCCC(=O)Nc1ccc(NC(=S)NC(=O)c2cccs2)cc1 | inconclusive: -56.2%

Row | SMILES | activity score
21 | CCOC(=O)c1cnc2nc(N3CCOCC3)nn2c1N | inconclusive: -34.5%
22 | c1ccc2oc(-c3csc(NCC4CCCO4)n3)cc2c1 (stereo not given) | active: -110%
23 | O=C(CSc1nc2ccccc2o1)N/N=C/c1ccc(O)c(O)c1 | inconclusive: -58.7%
24 | Cc1ccc2c(c1)C(c1ccncc1)=NNC(c1ccc(F)cc1)=N2 | inconclusive: -59.8%
25 | Cc1cccc(NCc2ccc(O)c3ncccc23)c1C | inactive: 55.6%
26 | Cc1ccc(C(=O)O/N=C/c2c(N3CCOCC3)n(C)c3ccccc23)cc1 | inactive: 77.4%
27 | CCOc1cc(CNCCCN2CCOCC2)ccc1OCC(=O)Nc1cccc2ccccc12 | inconclusive: -54.8%
28 | Cc1nn(C)cc1C1C(C#N)=C(N)N(c2ccc(F)c([N+](=O)[O-])c2)C2=C1C(=O)CCC2 (stereo not given) | inconclusive: -52.6%
29 | O=C(O)CN1C(=O)/C(=C\c2cccc(OCc3ccc(Cl)cc3Cl)c2)SC1=S | active: -106%
30 | C/C(N)=C(/C#N)C(=O)COC(=O)c1cccc2ccccc12 | active: -62.5%
31 | c1ccc(N2CC3CCc4ccccc4C3=N2)cc1 (stereo not given) | inconclusive: -57.6%
32 | CN(C)c1ccc(N=Cc2nc(-c3ccccc3)oc2OC(=O)c2cccc(Br)c2)cc1 | active: -166%
33 | O=C(COc1ccccc1Br)Nc1ccc2c(c1)OCCCO2 | active: -133%
34 | Cc1ccc(C(=O)c2cc([N+](=O)[O-])ccc2N2CCOCC2)c(C)c1 | inactive: 97.7%
35 | O=C(CCCOc1ccc(Cl)cc1)N1CCCCC1 | inconclusive: -50.7%
36 | COCC(=O)Nc1nnc(-c2ccc(C(C)(C)C)cc2)s1 | inconclusive: -58.9%
37 | S=C(Nc1ccccc1)N1CCN(C(=S)c2ccccc2)CC1 | inconclusive: -37.6%
38 | COc1ccc(/C=C/C(=O)c2cc(F)ccc2OC(=O)c2ccccc2)cc1OC | inactive: 67.1%
39 | CCOC(=O)c1ccc(NC(=O)N2CCN(CCc3ccccc3)CC2)cc1 | inconclusive: -54.8%
40 | C=CCOc1c(Cl)cc(C(=S)N2CCCC2)cc1OCC | active: -94.9%

Row | SMILES | activity score
41 | CCCC(=NCCc1c(C)[nH]c2ccccc12)C1=C(O)CC(c2ccccc2)CC1=O (stereo not given) | inactive: 86.5%
42 | N#Cc1nc(-c2cccc3ccccc23)oc1NCC1CCCO1 (stereo not given) | inconclusive: -49.9%
43 | CCCCNC(=O)Nc1ccc(C2SCCS2)cc1 | active: -91.5%
44 | Cc1ccc([N+](=O)[O-])c(C(=O)N/N=C/c2cccs2)c1 | inconclusive: -55.7%
45 | CCCNC(=S)Nc1ccc(Nc2ccccc2)cc1 | active: -86.7%
46 | CN(C)S(=O)(=O)c1cccc(NC(=S)N2CCc3ccccc32)c1 | inconclusive: -41.6%
47 | O=C(/C=C/Nc1nccs1)C(F)(F)Cl | inconclusive: -60.4%
48 | Cc1ccc(OCCn2c(NC(=O)c3ccco3)nc3ccccc32)cc1 | inactive: 67.2%
49 | COc1ccc(CN=C2NN=C(c3cccc(OC)c3)CS2)cc1 | inconclusive: -56.5%
50 | COc1cc(/C=C2\SC(=S)N(NC(=O)c3ccc(O)c(OC)c3)C2=O)ccc1O | inconclusive: -48.3%
51 | COc1ccccc1Nc1nc(N)nc(CSC(=S)N2CCCCC2)n1 | inconclusive: -46%
52 | O=S1(=O)C=C(SCCN2CCCCC2)c2ccccc21 | inconclusive: -60%
53 | O=C(NCc1ccccc1Cl)c1ccc2ccccc2n1 | active: -121%
54 | COc1ccc(/C=C2\SC(=O)N(CCCC(=O)Nc3ccc(C(=O)O)cc3)C2=O)cc1OC | inactive: 73.4%
55 | CC(=O)c1cc(C#N)c(NCc2cc(-c3ccccc3)no2)nc1C | inconclusive: -39.9%
56 | O=C(Nc1ccc(F)cc1)c1cc2c(s1)CCCC2 | active: -165%
57 | Cc1cc(=O)[nH]c(N/N=C/c2cc(C)n(-c3ccccc3)c2C)n1 | active: -63.4%
58 | O=C(Nc1ccc2c(c1)OCCO2)c1cccc2nc3ccccc3nc12 | inactive: 59.8%
59 | CN(C)c1ccc(N=Nc2ccccc2C(=O)OCC(=O)NC2CCCC2)cc1 | active: -112%
60 | CC(C)(C)n1nc(-c2ccc(Cl)cc2)c2c(N)ncnc21 | inactive: 105%
